# According to PubChem BioAssay AID504332 (National Center for Advancing Translational Sciences (NCATS), 2011):
# Where “and” joins values, the source holds several entries; their conditions need not be identical. Identical values can stand only once. About 31,000 (8.9%) of roughly 350,000 compounds were called active. The shares of active, inactive and inconclusive entries below differ from those in the screen. Calls follow the shape of the dose curve; as a rule, active = well fitted inhibition curve with a large enough effect; inconclusive = small, poorly fitted or top-dose-only effect; inactive = no such curve, though single readings can be large or run the other way. A potency beside an inconclusive call is a rough fit, not a confirmed value.
# Target: Histone-lysine N-methyltransferase EHMT2 (Homo sapiens) (UniProt Q96KQ7)
# UniProt Q96KQ7, sequence (Q96KQ7 whole entry, looked up): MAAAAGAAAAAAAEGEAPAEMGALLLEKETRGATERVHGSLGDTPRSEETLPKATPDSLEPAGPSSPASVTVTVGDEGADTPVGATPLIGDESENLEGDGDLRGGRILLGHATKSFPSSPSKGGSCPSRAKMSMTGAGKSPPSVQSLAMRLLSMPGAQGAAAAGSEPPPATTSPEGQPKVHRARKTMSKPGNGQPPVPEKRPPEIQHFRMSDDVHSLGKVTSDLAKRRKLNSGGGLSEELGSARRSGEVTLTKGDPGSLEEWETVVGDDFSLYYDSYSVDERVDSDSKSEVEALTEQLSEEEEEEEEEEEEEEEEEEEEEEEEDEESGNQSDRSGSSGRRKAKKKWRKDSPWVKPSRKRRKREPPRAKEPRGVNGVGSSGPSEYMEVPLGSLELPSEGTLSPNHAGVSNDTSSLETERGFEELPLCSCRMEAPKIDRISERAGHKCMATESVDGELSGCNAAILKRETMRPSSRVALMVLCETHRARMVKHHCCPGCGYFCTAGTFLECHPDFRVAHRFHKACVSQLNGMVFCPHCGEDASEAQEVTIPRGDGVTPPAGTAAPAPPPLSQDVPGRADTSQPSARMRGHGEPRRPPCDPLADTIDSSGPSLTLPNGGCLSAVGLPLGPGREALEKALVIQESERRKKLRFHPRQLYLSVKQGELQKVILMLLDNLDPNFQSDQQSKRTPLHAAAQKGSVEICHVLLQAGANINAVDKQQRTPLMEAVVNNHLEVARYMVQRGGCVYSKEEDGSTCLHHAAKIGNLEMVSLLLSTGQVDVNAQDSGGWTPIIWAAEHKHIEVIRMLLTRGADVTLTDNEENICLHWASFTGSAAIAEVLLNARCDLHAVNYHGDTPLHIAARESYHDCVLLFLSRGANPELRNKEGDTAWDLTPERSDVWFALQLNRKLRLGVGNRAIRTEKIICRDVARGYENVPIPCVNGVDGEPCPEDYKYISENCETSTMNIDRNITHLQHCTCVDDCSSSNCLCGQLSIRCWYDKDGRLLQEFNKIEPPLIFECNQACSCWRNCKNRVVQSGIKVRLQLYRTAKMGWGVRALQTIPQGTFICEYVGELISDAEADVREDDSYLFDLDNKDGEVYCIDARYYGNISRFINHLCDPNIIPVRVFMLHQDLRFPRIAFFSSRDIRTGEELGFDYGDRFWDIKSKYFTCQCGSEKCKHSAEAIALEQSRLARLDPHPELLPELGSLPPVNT
# Experiment: qHTS Assay for Inhibitors of Histone Lysine Methyltransferase G9a; also: nearly all actives have a fitted effect of over 75% in size
# Conditions: G9a H3K9 monomethylation, AlphaScreen, 2 h; activity, negative = inhibition: at 59 µM (top of the series) unless noted
# Procedure, shortened: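 Methyltransferase reactions run at room temperature for 2 h (20 nM enzyme, 500 nM biotin-H3K9 peptide, 20 uM SAM) after a 15 min compound preincubation; product detected by AlphaScreen beads and anti-H3K9me1 antibody.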
# % is scaled to controls: 0 for no effect and ±100 for the full control effect; potency is read from the fitted curve at half-maximal effect; tags tell the direction and shape of the fitted curve.
SMILES,Potency,"activity, negative = inhibition"
S=c1[nH]nc(-c2ccncc2)n1/N=C/c1cccc2ccccc12,active: 1.12 µM,
COc1ccc(CC(=O)NCc2ccc3c(c2)CCN3C(=O)c2ccc(Cl)cc2)cc1OC,,inactive: -7.99%
COc1ccccc1-c1cc(C(F)(F)F)nc(S(=O)(=O)CCCC(=O)Nc2cc(OC)c(OC)c(OC)c2)n1,"inconclusive: 35.5 µM [inhibitor, partial curve, poor fit]",
CC(C)CCOc1ccc(C(=O)C[N+]2(C)CCOCC2)cc1,"inconclusive: 1.78 µM [inhibitor, full curve, poor fit]",
O=C(Cn1nc(Cc2cccnc2)c2ccccc2c1=O)Nc1ccc2c(c1)OCO2,"inconclusive: 31.6 µM [inhibitor, partial curve, poor fit]",
CC(C)Cc1ccc(CN2CCCC(NC(=O)c3nn(C)c(=O)c4ccccc34)C2)cc1 (configuration not stated),"inconclusive: 50.1 µM [inhibitor, partial curve, poor fit]",
COc1ccc(C(=O)c2sc(Nc3cccc(OC)c3)c(C(=O)Nc3cccc(C)c3C)c2N)cc1,"inconclusive: 2.24 µM [inhibitor, full curve, poor fit]",
COc1ccc(C(=O)/C=C/c2ccc(OC)c(COc3ccccc3F)c2)cc1,"inconclusive: 89.1 µM [inhibitor, single point]",
CC(=O)Nc1ccc(Nc2ncnc(N)c2[N+](=O)[O-])cc1,"inconclusive: 89.1 µM [inhibitor, single point]",
Cc1oc(-c2ccccc2)nc1Cn1cccc1C1=NC(c2ccccc2)CO1 (configuration not stated),,inactive: 35% [at 0.501 µM]
Cc1cc(C)n(-c2ccc(C(C)C)cc2)c(=O)c1C#N,"inconclusive: 50.1 µM [inhibitor, partial curve, poor fit]",
CC(C)(C)C(=O)NCCCNc1ccc([N+](=O)[O-])cc1,,inactive: -3.86%
Cc1ccc(S(=O)(=O)N2CCOCC2)cc1NC(=O)CN1CCN(c2ccc(O)cc2)CC1,"inconclusive: 22.4 µM [inhibitor, single point]",
COC(=O)c1ccc(NCC(=O)c2ccccc2)cc1,active: 50.1 µM,
CCCCc1ccc(NC(=O)CN2C(=O)C3CCCCC3C2=O)cc1 (configuration not stated),,inactive: 6.58% [at 0.501 µM]
COC(=O)N1CCC2(CCCN(Cc3nccs3)C2)CC1,,inactive: 4.37% [at 12.7 µM]
CCN(CC)S(=O)(=O)c1cc(OC)ccc1N=Nc1ccc(O)c2ncccc12,active: 8.91 µM,
Cc1ccc(-c2cn3cccnc3n2)cc1NC(=O)c1cccs1,"inconclusive: 89.1 µM [inhibitor, single point]",
Cc1ccc(CNC(=O)c2nnc(Cc3cccc(F)c3)o2)cc1,,inactive: 74.4%
CCOc1ccc(Nc2nc(NCC3CCCO3)c3ccccc3n2)cc1 (configuration not stated),active: 39.8 µM,
O=c1[nH][nH]c(C(F)(F)F)c1C=Nc1cccc(Cl)c1,"inconclusive: 1.78 µM [inhibitor, full curve, poor fit]",
Cc1cccc(NNC(N)=S)c1C,active: 20 µM,
CC(C)OCC(O)CN1CCN(CCN2C(=O)c3cccc4cccc(c34)C2=O)CC1 (configuration not stated),"inconclusive: 79.4 µM [inhibitor, single point]",
CCc1nnc(NC(=O)C2CC(=O)N(C3CCCCC3)C2)s1 (configuration not stated),,inactive: 16% [at 102 µM]

SMILES,Potency,"activity, negative = inhibition"
COc1ccc2c(c1)C(=O)N(c1ccccc1OC)C(=O)C2,"inconclusive: 6.31 µM [inhibitor, single point]",
COc1ccc(CCN2CCCC(CN(C)Cc3cc(OC)c(OC)c(OC)c3)C2)cc1 (configuration not stated),"inconclusive: 89.1 µM [inhibitor, single point]",
O=C1c2ccccc2S(=O)(=O)N1Cc1nnc(-c2ccccc2Br)o1,"inconclusive: 39.8 µM [inhibitor, single point]",
CC(C)(C)NC(=O)CN(C(=O)CS(=O)CC(=O)Nc1ccc(F)cc1)c1ccc(F)c(Cl)c1 (configuration not stated),"inconclusive: 89.1 µM [inhibitor, partial curve, poor fit]",
CCN(C(=O)COC(=O)c1c(C)nsc1NC)c1ccccc1,"inconclusive: 0.562 µM [inhibitor, partial curve, poor fit]",
COc1ccc(N2CC(C(=O)Nc3ccc(NC(C)=O)cc3)CC2=O)cc1 (configuration not stated),,inactive: 23.4%
N=C1S/C(=C\c2ccccc2F)C(=O)N1c1ccc(F)cc1,,inactive: -5.98% [at 102 µM]
CCC1=Nc2cc(C(=O)NCc3ccco3)ccc2Sc2ccccc21,"inconclusive: 17.8 µM [inhibitor, single point]",
Cc1c(/C(Cc2ccccc2)=N/O)c2ccccc2n1C,"inconclusive: 35.5 µM [inhibitor, single point]",
CCOc1cc(N2CCOCC2)c(OCC)cc1NC(=O)c1cc(-c2ccco2)nc2ccccc12,active: 8.91 µM,
Cc1cc(NC(=O)COC(=O)C2CC(=O)N(c3ccccc3)C2)no1 (configuration not stated),,inactive: 26.4% [at 102 µM]
Cc1ccc(NC(=S)N/N=C2\CC3CC=CC23)c(C)c1 (configuration not stated),"inconclusive: 3.16 µM [inhibitor, partial curve, poor fit]",
COc1ccc(CC(=O)NCCCSc2ccccc2)cc1OC,,inactive: 41.4% [at 102 µM]
CC(C)(C)NC(=O)NC(=O)CN1CCCc2ccccc21,"inconclusive: 28.2 µM [inhibitor, partial curve]",
Cc1ccc(C)c(S(=O)(=O)c2nnn3c2nc(N2CCOCC2)c2sccc23)c1,,inactive: 13.3%
Cc1cc(NC(=O)/C=C/C(=O)N(CC(=O)NC2CCCC2)c2cccc3ccccc23)no1,"inconclusive: 1.41 µM [inhibitor, full curve]",
O=c1cc(N2CCNCC2)oc2c(-c3ccccc3)cccc12,,inactive: 12.4%
CCN1C(=O)c2ccccc2S(=O)c2ccc(C(=O)NCc3ccc(F)cc3)cc21 (configuration not stated),,inactive: 5.23%
COc1ccc(NC(=O)/C(C#N)=C\C=C\c2ccco2)cc1,"inconclusive: 20 µM [inhibitor, single point]",
CNC(=O)CN(c1ccc(Oc2ccccc2)cc1)S(=O)(=O)c1ccc(C)cc1,,inactive: 29.9% [at 102 µM]
CCOC(=O)N1CCN(C(=O)C2CC(c3ccccc3OC)=NO2)CC1 (configuration not stated),"inconclusive: 100 µM [inhibitor, single point]",
Cc1cc(N2CCOCC2)nc2ccccc12,,inactive: -1.28%
Cc1cccn2c(=O)c(C=O)c(Cl)nc12,,inactive: -10.4% [at 12.7 µM]
Nc1cc(C(=O)OCC(=O)Nc2ccc(N3CCOCC3)cc2)ccc1Cl,"inconclusive: 0.282 µM [inhibitor, partial curve, poor fit]",

SMILES,Potency,"activity, negative = inhibition"
CC1CCCN(C(=O)C(C)Nc2cc(Cl)ccc2N2CCOCC2)C1 (configuration not stated),active: 39.8 µM,
CCOc1ccc(C(c2c(O)cc(C)n(CCOC)c2=O)N2CCN(c3ccccc3F)CC2)cc1 (configuration not stated),"inconclusive: 39.8 µM [inhibitor, single point]",
O=C(Cn1nnc2ccccc2c1=O)NC1CCCc2ccccc21 (configuration not stated),"inconclusive: 79.4 µM [inhibitor, partial curve, poor fit]",
O=C1CC(N2CCC(c3nc4ccccc4[nH]3)CC2)C(=O)N1c1cccc(F)c1 (configuration not stated),"inconclusive: 50.1 µM [inhibitor, partial curve]",
Cc1cc(NC(=O)CCOc2ccc(F)cc2)no1,active: 56.2 µM,
COc1cc2ncnc(NCc3ccc(C)cc3)c2cc1OC,"inconclusive: 0.562 µM [inhibitor, full curve, poor fit]",
O=C(CSc1nccc(=O)[nH]1)c1ccco1,"inconclusive: 50.1 µM [inhibitor, partial curve, poor fit]",
Cc1ccc(C(C)C)c(OCCN(C)C)c1,active: 3.55 µM,
COc1ccc(N2CCN(CCCNC(=O)C3(S(=O)(=O)c4ccc(Cl)cc4)CC3)CC2)cc1,,inconclusive: -82.9% [inhibitor]
S=c1[nH]ccn1-c1ccccc1Cl,active: 31.6 µM and active: 15.8 µM,
COc1ccc(N2C(=O)CSC2c2ccccc2[N+](=O)[O-])cc1 (configuration not stated),active: 50.1 µM,
CN1CCc2ccccc2C1Cc1ccccc1NC(=O)c1sc2ccccc2c1Cl (configuration not stated),"inconclusive: 79.4 µM [inhibitor, single point]",
CCn1ncc2c(OCc3ccc(C#N)cc3)cc(C)nc21,,inactive: 18.8%
CCc1cccc(NC(=O)CCc2c(C)nc3c(c2C)c(=O)n(C)c(=O)n3C)c1,,inactive: -33.9%
O=C(Nc1nnc(-c2ccccc2)s1)c1cccc(S(=O)(=O)N2CCOCC2)c1,"inconclusive: 17.8 µM [inhibitor, single point]",
O=C(Cn1c(=O)cnc2ccccc21)N1CCCc2ccccc21,"inconclusive: 89.1 µM [inhibitor, single point]",
CCCCN1C(=O)NC(c2ccc(OC)cc2)C(C(=O)OCc2ccccc2)=C1C (configuration not stated),"inconclusive: 70.8 µM [inhibitor, partial curve, poor fit]",
CC(=O)/C(=N/Nc1ccccc1Cl)Sc1nnc(C(O)c2ccccc2)n1-c1ccccc1 (configuration not stated),active: 10 µM,
CCOC(=O)C1CCN(c2nc(N)c3c(N)nc(SCC(=O)O)cc3c2C#N)CC1,active: 8.91 µM,
O=C1N=C(c2ccccc2)S/C1=C\c1cccs1,active: 1.41 µM,
COc1ccc(NC(=O)CN(C)C(=O)c2ccc3c(c2)OCCO3)cc1,,inactive: 0.24% [at 102 µM]
COc1cc(OC)c(NC(=O)c2sc3ncn(CC(=O)N4CCOCC4)c(=O)c3c2C)cc1Cl,"inconclusive: 17.8 µM [inhibitor, partial curve, poor fit]",
Cc1c(N=Nc2c(-c3ccc([N+](=O)[O-])cc3)[nH]n(C(N)=S)c2=O)cccc1[N+](=O)[O-],active: 50.1 µM,
N#CCSc1nnc(COc2ccc3ccccc3c2)o1,"inconclusive: 79.4 µM [inhibitor, partial curve, poor fit]",
